# Data reported in PubChem BioAssay (Tox21).
# Where “and” joins values, the source holds several entries; their conditions need not be identical. Equal values may be shown once. Inconclusive results, whose numbers are uncertain, are shown with a selection of clear calls. A potency beside an inconclusive call is a rough fit, not a confirmed value. Some compounds were tested as several samples or in several runs, with calls that do not always agree. Calls of active or inactive are those of the source. Calls follow the shape of the dose curve; as a rule, active = well fitted cell-killing curve with a large enough effect in the repeat runs; inconclusive = weak or mixed curves, or effect the other way; inactive = no such curve, though single readings can be large or run the other way.
# Test: qHTS assay to identify small molecule antagonists of the progesterone receptor (PR) signaling pathway - cell viability counter screen (AID 1346798); also: nearly all actives have a fitted effect of over 50% in size
# Conditions: PR-UAS-bla HEK293T viability, CellTiter-Glo luminescence, 16 h; series mostly up to 92.4 µM
# Description: National Center for Advancing Translational Sciences [NCATS]
# NIH Chemical Genomics Center [NCGC]
# U.S. Environmental Protection Agency [EPA]
# National Institutes of Environmental Health Sciences [NIEHS]
# National Toxicology Program [NTP]
# U.S. Food and Drug Administration [FDA]
# Progesterone receptor (PR), a nuclear hormone receptor, plays an important role in development, metabolic homeostasis and reproduction. It is activated by the steroid hormone progesterone. Endocrine disrupting chemicals (EDCs) and their interactions with steroid hormone receptors like PR causes disruption of normal endocrine function. To identify the compounds that inhibit PR signaling, a PR-UAS-bla GripTite cell line i.e. PR-UAS-bla HEK293T (Invitrogen, Carlsbad, CA, USA) containing a beta-lactamase reporter gene under the control of an UAS response element was used to screen Tox21 10K compound library. The cytotoxicity of the Tox21 compound library against the PR-bla cell line was tested in parallel by measuring the cell viability using CellTiter-Glo assay in the same wells.
# Tox21 Assay Protocol Summary:
# PR-UAS-bla HEK293T cells were dispensed at 3,000 cells/4 uL of assay medium containing 2% charcoal stripped FBS per well into black wall/clear-bottom 1536-well plates using a Multidrop Combi (ThermoFisher Scientific, Waltham, MA) dispenser. After the assay plates were incubated at a 37C and 5% CO2 for 4 hr, 23 nL of compounds dissolved in DMSO, positive controls or DMSO only was transferred to the assay plate by a Pintool station (Kalypsys, San Diego, CA), followed by addition of 1 uL of R5020 in assay medium using a Flying Reagent Dispenser (FRD, Aurora Discovery, San Diego, CA). The plates were incubated at 37C and 5% CO2 for 16 hr. Then 1 uL of LiveBLAzer B/G FRET substrate was added using a Flying Reagent Dispenser, the plates were incubated at room temperature for 2 hours, and fluorescence intensity was measured by an Envision plate reader (PerkinElmer, Shelton, CT). For cell viability readout that measures cytotoxicity, 4 uL/well of CellTiter-Glo reagent was added into the assay plates using a FRD. After 30 min incubation at room temperature, the luminescence intensity in the plates was measured using a ViewLux (PerkinElmer) plate reader.
# Potency is read from the fitted curve at half-maximal effect; tags tell the direction and shape of the fitted curve.
row,Structure (SMILES),Potency
1,Clc1ccc(C(Cl)(Cl)Cl)cn1,"inconclusive: 68.6 µM [cytotoxic, partial curve, poor fit]"
2,CN(C)CCc1c[nH]c2ccccc12,"inconclusive: 108 µM [cytotoxic, single point]"
3,ClC1=C(Cl)[C@]2(Cl)[C@@H]3[C@H]4C[C@H]([C@@H]5O[C@H]45)[C@@H]3[C@@]1(Cl)C2(Cl)Cl,"inconclusive: 68.5 µM [cytotoxic, single point]"
4,CC(C)(c1ccccc1)c1cc(-n2nc3ccccc3n2)c(O)c(C(C)(C)c2ccccc2)c1,inactive
5,CCC(C)(C)c1ccc(O)cc1,"inconclusive: 33.5 µM [cytotoxic, single point]"
6,c1ccc2c(c1)Sc1ccccc1N2CC1CN2CCC1CC2 (stereo not given),active: 21.1 µM
7,NCC(O)c1ccc(O)cc1 (stereo not given),"inconclusive: 67.5 µM [cytotoxic, single point]"
8,Oc1ccc(C2(c3ccc(O)cc3)CCCCC2)cc1,"inconclusive: 72.9 µM [cytotoxic, single point]"
9,CCCSP(=O)(OCC)Oc1ccc(Br)cc1Cl (stereo not given),"inconclusive: 10.5 µM [rising, full curve]"
10,Oc1cccc2cccnc12,"inconclusive: 1.45 µM [cytotoxic, full curve, poor fit]"
11,CCCCCCCCCCCCCCCC[N+](C)(C)C,"inconclusive: 2.09 µM [cytotoxic, full curve, poor fit] and inconclusive: 68.6 µM [cytotoxic, single point] and active: 29.8 µM"
12,CNC(C)Cc1ccc2c(c1)OCO2 (stereo not given),active: 66.9 µM
13,Fc1ccc(C(OCCN2CCN(CCCc3ccccc3)CC2)c2ccc(F)cc2)cc1,inconclusive: 33.5 µM [cytotoxic]
14,O=C(O)CC[N+](=O)[O-],inactive
15,COC(=O)c1cc(Oc2ccc(Cl)cc2Cl)ccc1[N+](=O)[O-],"inconclusive: 21.7 µM [rising, full curve]"
16,O=C(Nc1ccccc1)Nc1ccnc(Cl)c1,"inconclusive: 68.6 µM [cytotoxic, single point]"
17,CC(C)c1cccc(C(C)C)c1O,"inconclusive: 4.86 µM [cytotoxic, full curve, poor fit]"
18,BrCC(Br)(Br)Br,"inconclusive: 5.65 µM [cytotoxic, single point]"
19,Nc1ccccc1-c1ccccc1,"inconclusive: 48.3 µM [cytotoxic, partial curve]"
20,CS(=O)(=O)c1ccc(C(=O)C2C(=O)CCCC2=O)c([N+](=O)[O-])c1,"inconclusive: 8.78 µM [rising, full curve, poor fit]"

row,Structure (SMILES),Potency
1,Cc1ccc(N)c(N)c1,"inconclusive: 68.8 µM [cytotoxic, single point] and inconclusive: 48.6 µM [cytotoxic, partial curve, poor fit]"
2,CCCCCCCCCCCCCCC(Br)C(=O)O (stereo not given),inactive
3,O=P(Oc1ccccc1)(Oc1ccccc1)Oc1ccccc1,"inconclusive: 68.2 µM [cytotoxic, single point]"
4,CCOP(=O)(OCC)Oc1ccc([N+](=O)[O-])cc1,"inconclusive: 6.94 µM [cytotoxic, single point]"
5,O=C(Nc1ccc2[nH]ccc2c1)c1cc2cc(F)ccc2n1Cc1cccc(F)c1,active: 48.6 µM
6,O=c1c(C2CC(c3ccc(-c4ccc(Br)cc4)cc3)Cc3ccccc32)c(O)sc2ccccc12 (stereo not given),"inconclusive: 6.68 µM [rising, full curve, poor fit]"
7,O=C1C(Cl)=C(Cl)C(=O)c2ccccc21,active: 61.3 µM and active: 61.1 µM
8,C/C(=N\NC(=O)Nc1cc(F)cc(F)c1)c1ncccc1C(=O)O,"inconclusive: 43.3 µM [cytotoxic, partial curve, poor fit]"
9,C[C@@H]1CC[C@@]2(OC1)O[C@H]1[C@@H](O)[C@H]3[C@@H]4CC[C@H]5C[C@@H](O[C@@H]6O[C@H](CO)[C@H](O[C@@H]7O[C@H](CO)[C@@H](O)[C@H](O[C@@H]8OC[C@@H](O)[C@H](O)[C@H]8O)[C@H]7O[C@@H]7O[C@H](CO)[C@@H](O)[C@H](O[C@@H]8O[C@H](CO)[C@@H](O)[C@H](O)[C@H]8O)[C@H]7O)[C@H](O)[C@H]6O)[C@H](O)C[C@]5(C)[C@H]4CC[C@]3(C)[C@H]1[C@@H]2C,active: 16.3 µM
10,N#CCCC(Br)(C#N)CBr (stereo not given),"inconclusive: 38.6 µM [cytotoxic, partial curve, poor fit]"
11,CCC(C)(C)C(=O)OC1=C(c2ccc(Cl)cc2Cl)C(=O)OC12CCCCC2,"inconclusive: 30.6 µM [rising, partial curve]"
12,CCC(=O)O[C@H]1CC[C@H]2[C@@H]3CCC4=CC(=O)CC[C@]4(C)[C@H]3CC[C@]12C,"inconclusive: 77 µM [cytotoxic, single point]"
13,CC(=O)c1cc(C(C)(C)C)cc2c1CCC2(C)C,inactive
14,CCC[CH2][Sn]([Cl])([CH2]CCC)[CH2]CCC,active: 1.73 µM and active: 3.44 µM
15,O=[N+]([O-])c1c(Cl)c(Cl)cc(Cl)c1Cl,inactive
16,CC(C)[C@@H](Nc1ccc(C(F)(F)F)cc1Cl)C(=O)OC(C#N)c1cccc(Oc2ccccc2)c1 (stereo not given in full),inactive
17,Cc1nnc2n1-c1sc(CCc3ccc(CC(C)C)cc3)cc1C(c1ccccc1Cl)=NC2C (stereo not given),"inconclusive: 21.1 µM [cytotoxic, partial curve, poor fit]"
18,CC1(C)[C@H](C(=O)O[C@H](C#N)c2cccc(Oc3ccccc3)c2)[C@@H]1/C=C(\Cl)C(F)(F)F,"inconclusive: 21.7 µM [rising, full curve]"
19,OCC(c1ccc(Cl)cc1)c1ccc(Cl)cc1,"inconclusive: 77 µM [cytotoxic, single point]"
20,CCCCCCCCCCCCBr,"inconclusive: 15.4 µM [cytotoxic, full curve]"
